Test results from the RNAGym collection of RNA variant scans (doi:10.1073/pnas.2313332121).
Variants at the background level are over-represented here.

B1: TPR 5TU (parent)
chain: GGAUCUUCUCGAUCUAACAAAAAAGACAAAUCUGCCACAAAGCUUGAGAGCAUCUUCGGAUGCAGAGGCGGCAGCCUUCGGUGGCGCGAUAGCGCCAACGUUCUCAACUAUGACACGCAAAACGCGUGCUCCGUUGAAUGGAGUUUAUCAUG

Variants of: B1
Experiment: polymerase ribozyme fitness, log enrichment relative to wild type (log ratio); higher = more active; in vitro selection for triplet polymerase activity
Summary of the method: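 Genotype fitness is the logarithm of its enrichment divided by wild-type enrichment, using inverse-variance-weighted averages of replicates. That logarithm is base 2. Enrichment was measured by Illumina sequencing of input and output libraries from one triplicate in vitro selection round, with frozen incubation at −7 °C, on PCR-built, transcribed mutant libraries of each subunit of a heterodimeric triplet polymerase ribozyme, retaining genotypes with ≥10 input reads and ≥1 read per output.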

| Variant | polymerase ribozyme fitness (log ratio) |
| --- | --- |
| A66C C85G | -4.16 |
| A66C C87G C118A G136C G143A | ≤ -4.2 |
| A66C C87U C132G G141C A147U A150U | ≤ -4.2 |
| A66C C93U | ≤ -4.2 |
| A66C C93U A110G C125A U135C | ≤ -4.2 |
| A66C C93U C103A A113U C116G A142U A150C | ≤ -4.2 |
| A66C G80C C87U A107C C116A U145C | ≤ -4.2 |
| A66C G81U G84A G141C | ≤ -4.2 |
| A66C G92C C114U | ≤ -4.2 |
| A66C G100A A106G | ≤ -4.2 |
| A66C G126A | ≤ -4.2 |
| A66G A73U G81A G92U U111C | ≤ -4.2 |
| A66G A89U C93U C95G | ≤ -4.2 |
| A66G C85A A115G A121C A138U U144A | ≤ -4.2 |
| A66G C85G | ≤ -4.2 |
| A66G C85G C93G C114U C123A U127G | ≤ -4.2 |
| A66G C87A G92A U151G | ≤ -4.2 |
| A66G C87U A107G C114U G117U | ≤ -4.2 |
| A66G C105U | -3.63 |
| A66G G71C C95A G126A | ≤ -4.2 |
| A66G G84A C108G | ≤ -4.2 |

| Variant | polymerase ribozyme fitness (log ratio) |
| --- | --- |
| A66G G84U G152C | ≤ -4.2 |
| A66G G88A C99A G143U | ≤ -4.2 |
| A66G G88C G92U C99G G141U | ≤ -4.2 |
| A66G G92C C95A C103U C108G U151C | ≤ -4.2 |
| A66G U78G A107C U134G G143C | ≤ -4.2 |
| A66G U82G C93A | ≤ -4.2 |
| A66G U90C G92A G117U G140A | ≤ -4.2 |
| A66G U111C | ≤ -4.2 |
| A66U A73G A89U U104C A138G G141A | ≤ -4.2 |
| A66U A89G | ≤ -4.2 |
| A66U A91U U139A | ≤ -4.2 |
| A66U A115C G124A | ≤ -4.2 |
| A66U G84U G94U C108G | ≤ -4.2 |
| A66U G88A U145G U148C A150C | ≤ -4.2 |
| A66U U78A A91G G136A | ≤ -4.2 |
| A66U U78G C85U A137C | ≤ -4.2 |
| G67A A98U U139C U148A | ≤ -4.2 |
| G67A C69A | ≤ -4.2 |
| G67A C85A A98C C105U | ≤ -4.2 |
| G67A C87U C103U | ≤ -4.2 |
| G67A C114U U134G A150C | ≤ -4.2 |

| Variant | polymerase ribozyme fitness (log ratio) |
| --- | --- |
| G67A G68C A89C | ≤ -4.2 |
| G67A G68C G80C G84U A119U | ≤ -4.2 |
| G67A U77C G92A A110G | ≤ -4.2 |
| G67A U78G G86U C99U G141A | ≤ -4.2 |
| G67C A73U A91G G136A A137G | ≤ -4.2 |
| G67C C69U G88A C93G G143C | ≤ -4.2 |
| G67C C79A C95U C114A G136A | ≤ -4.2 |
| G67C C85G G88U U101G A110G U134A A150C | ≤ -4.2 |
| G67C C87A G100A | ≤ -4.2 |
| G67C C93G C99G A137U U146A | ≤ -4.2 |
| G67C G68A C85U C99A A115U | ≤ -4.2 |
| G67C G80C G92A C103A C118G G133A | ≤ -4.2 |
| G67C G83A | ≤ -4.2 |
| G67C G83A C123G | ≤ -4.2 |
| G67C G84A U139A G140U | ≤ -4.2 |
| G67C G84C C87G A91C A147C | ≤ -4.2 |
| G67C G88C C116G A122U G128U U144A | ≤ -4.2 |
| G67C G88U A106G A121C | ≤ -4.2 |
| G67C U82A U130G G143C | ≤ -4.2 |
| G67C U139G | ≤ -4.2 |
| G67U A89C C96G A106C A119C | ≤ -4.2 |

| Variant | polymerase ribozyme fitness (log ratio) |
| --- | --- |
| G67U G74C C103U A121U A137C U144G | ≤ -4.2 |
| G67U G88U | ≤ -4.2 |
| G67U U146C | -2.47 |
| G68A | -3.29 |
| G68A A89G U90A C93U | ≤ -4.2 |
| G68A A98U A106G A120U C131G | ≤ -4.2 |
| G68A C69G G80A U104G | ≤ -4.2 |
| G68A C72U | -4.15 |
| G68A C76A C85U A106G A120C G128U | ≤ -4.2 |
| G68A C85G C118G U146G U148G | ≤ -4.2 |
| G68A C93U U104C A106G | ≤ -4.2 |
| G68A C96U C99A | ≤ -4.2 |
| G68A C96U C132G | ≤ -4.2 |
| G68A C99G | ≤ -4.2 |
| G68A G83A C95A A110G | ≤ -4.2 |
| G68A G94U C125G A142C | ≤ -4.2 |
| G68A U82G A91U C99U | ≤ -4.2 |
| G68C | -3.92 |
| G68C A89G A120G A147U U148G | ≤ -4.2 |
| G68C C93G | ≤ -4.2 |
